# Results as given in PubChem BioAssay AID624417 (National Center for Advancing Translational Sciences (NCATS), 2012).
# Among all 410,000 compounds or so, about 6,400 (1.6%) were called active. This list was built around the results that the source calls inconclusive (neither active nor inactive); the mix of calls is not that of the screen. Calls follow the shape of the dose curve; as a rule, active = well fitted inhibition curve with a large enough effect; inconclusive = small, poorly fitted or top-dose-only effect; inactive = no such curve, though single readings can be large or run the other way. No potency is given beside an inconclusive call; the fits are too rough.
# Biological target: Glucagon-like peptide 1 receptor (Homo sapiens) (UniProt P43220)
# Sequence of UniProt P43220 (P43220 whole entry, looked up): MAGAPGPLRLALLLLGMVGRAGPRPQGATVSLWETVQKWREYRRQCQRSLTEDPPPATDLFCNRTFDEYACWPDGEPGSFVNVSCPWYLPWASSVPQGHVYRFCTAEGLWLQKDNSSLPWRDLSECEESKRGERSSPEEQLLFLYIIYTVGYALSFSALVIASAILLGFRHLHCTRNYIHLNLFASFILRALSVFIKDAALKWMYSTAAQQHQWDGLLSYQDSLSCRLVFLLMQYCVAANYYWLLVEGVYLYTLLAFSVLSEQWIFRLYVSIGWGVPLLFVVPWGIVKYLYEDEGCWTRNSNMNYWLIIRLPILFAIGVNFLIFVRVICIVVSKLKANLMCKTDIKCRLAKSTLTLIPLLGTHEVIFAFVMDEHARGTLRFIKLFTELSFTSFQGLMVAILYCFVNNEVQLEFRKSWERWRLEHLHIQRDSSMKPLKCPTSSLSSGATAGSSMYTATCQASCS
# Assay: qHTS of GLP-1 Receptor Inverse Agonists (Inhibition Mode); also: nearly all actives have a fitted effect of over 55% in size
# Settings: HEK293 GLP-1R CRE-luciferase, luminescence, 24 h, GLP-1R form is constitutively active; activity change, negative = inhibition: at 38.3 µM (top of the series) unless noted
# Outline: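 qHTS in 1536-well format: reporter HEK293 cells expressing constitutive GLP-1R activity in DMEM + 10% Nu serum, 24 hr with compounds at 37 deg C, luminescence read after 12 min with detection reagent.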
# % is scaled to controls: 0 for no effect and ±100 for the full control effect; potency is read from the fitted curve at half-maximal effect; tags tell the direction and shape of the fitted curve.
SMILES,Potency,"activity change, negative = inhibition"
CN1CCN(C(=O)CCN2C(=O)/C(=C\c3ccc(Cl)cc3)SC2=S)CC1,"inconclusive [inhibitor, single point]",–
CN1CCN(c2ccc(S(=O)(=O)N3CCCCC3)cc2NC(=O)c2ccc3ccccc3c2)CC1,"inconclusive [inhibitor, single point]",–
CCOc1ccc(-n2c(C)cc(/C=N\NC(=O)CC(=O)NC3CCCCC3)c2C)cc1,"inconclusive [inhibitor, single point]",–
CCCCC1CCC(c2nc(-c3ccccn3)no2)CC1 (configuration not stated),"inconclusive [inhibitor, single point]",–
NCCCNC(=O)Cn1c(=O)c2c3c(sc2n(Cc2ccccc2)c1=O)CCCC3,"inconclusive [inhibitor, single point]",–
COC(=O)c1ccc(COc2ccc(C(=O)c3ccccc3)cc2)o1,"inconclusive [inhibitor, partial curve, poor fit]",–
COc1cc(NC(=O)CSCC(=O)Nc2cccc(C(F)(F)F)c2)c(Cl)cc1Cl,"inconclusive [inhibitor, single point]",–
CC1CCCCN1C(=O)CSc1nnc(-c2ccco2)n1CC1CCCO1 (configuration not stated),–,inactive: 4.41%
COc1ccc(CNc2nc3ccccc3n2CCN2CCCCC2)c(OC)c1,"inconclusive [inhibitor, partial curve, poor fit]",–
O=c1ccn(Cc2ccccc2)c(=O)n1Cc1ccccc1,"inconclusive [inhibitor, partial curve, poor fit]",–
O=C(Nc1ccccc1N1CCCCC1)c1ccc(-c2ccc(Cl)cc2)o1,"inconclusive [inhibitor, partial curve, poor fit]",–
CN(CCCOc1ccccc1Br)Cc1ccccc1,"inconclusive [inhibitor, single point]",–
O=C(CCc1nnc2ccc(NCc3ccco3)nn12)N1CCN(c2ccc(F)cc2)CC1,–,inactive: 16.4%
CCOC(=O)N1CCN(S(=O)(=O)c2ccc(C(=O)N(CCN(C)C)c3nc4ccc(CC)cc4s3)cc2)CC1,"inconclusive [inhibitor, partial curve, poor fit]",–
COc1ccc(/C=C/C(=O)N(CC(C)C)CC(C)C)cc1Br,active: 11.2 µM,–
COc1cc(C(CC(=O)Nc2cc(C)ccc2C)N2Cc3ccccc3C2=O)cc(OC)c1OC (configuration not stated),–,inactive: 4.66%
CN(Cc1ccccc1)C(=O)c1cccc(NC(=O)c2nsc3ccccc23)c1,"inconclusive [inhibitor, single point]",–
COC(=O)C1=C(C)NC2=C(C(=O)CCC2)C1c1cn(Cc2ccc(Br)cc2)nc1-c1ccccc1 (configuration not stated),"inconclusive [inhibitor, single point]",–
Nc1nc(Nc2ccccc2F)sc1C(=O)c1ccccc1,"inconclusive [inhibitor, single point]",–
COc1ccc(CNc2oc(/C=C/c3cccc(OC)c3)nc2C#N)cc1,"inconclusive [inhibitor, single point]",–
O=C(O)c1ccccc1-c1ccccc1C(=O)NNc1ccc([N+](=O)[O-])cc1,"inconclusive [inhibitor, full curve, poor fit]",–

SMILES,Potency,"activity change, negative = inhibition"
CCN1C(=O)C(CC(=O)Nc2ccc(OC)cc2)N(CCCN2CCN(c3ccc(F)cc3)CC2)C1=S (configuration not stated),"inconclusive [inhibitor, full curve, poor fit]",–
CN(Cc1ccc(Cl)cc1)C(=O)COC(=O)CSc1ccc([N+](=O)[O-])cc1,–,inactive: -1.85%
COC(=O)C1=C(C)N=c2s/c(=C/c3ccoc3)c(=O)n2C1c1ccccc1 (configuration not stated),"inconclusive [inhibitor, partial curve, poor fit]",–
O=C(NCc1ccc(F)cc1)C1CCN(c2ncnc3c2nc2n3CCCCC2)CC1,–,inactive: 8.91%
COc1ccc(CNC(=O)c2ccc3c(c2)N(Cc2ccccc2C)C(=O)c2ccccc2S3=O)cc1 (configuration not stated),–,inactive: -22%
c1cc(-c2cc3nc(NC4CCCCC4)ccn3n2)ccc1OCCN1CCOCC1,"inconclusive [inhibitor, single point]",–
COc1cccc(CNC(=O)[C@@H]2CCCN2)c1,–,inactive: 31.9%
O=C(COC(=O)C1(c2ccccc2F)CCCC1)NC1CCS(=O)(=O)C1 (configuration not stated),–,inactive: 4.64%
CCN1CCN(CCNC(=O)Nc2ccc([N+](=O)[O-])cc2)CC1,–,inactive: 0.477%
c1ccc(CN2CCC3(CC2)Nc2ccccc2S3)cc1,"inconclusive [inhibitor, partial curve, poor fit]",–
CC(=O)Nc1ccc(S(=O)(=O)NCc2cccn2Cc2cccc(C)c2)cc1,"inconclusive [inhibitor, partial curve]",–
O=S1(=O)c2ccccc2OC(COCc2ccccc2)CN1Cc1ccccc1 (configuration not stated),"inconclusive [inhibitor, partial curve]",–
Cc1c(C(=O)Nc2ccc(Cl)cc2)c2ccccn2c1CCc1ccncc1,"inconclusive [inhibitor, single point]",–
Cc1c(C(=O)OCC2CCCO2)[nH]c2c1C(=O)CC(c1ccco1)C2 (configuration not stated),"inconclusive [inhibitor, full curve, poor fit]",–
Cc1ccnc(NC(=O)c2cccc(NC(=O)c3ccc(Cl)cc3)c2)c1,"inconclusive [inhibitor, partial curve, poor fit]",–
COc1ccc(/C=C/C(=O)C2CC2)cc1COc1cccc(C)c1C,"inconclusive [inhibitor, partial curve, poor fit]",–
COC(OC)c1ccnc(SCc2ccccc2Cl)n1,"inconclusive [inhibitor, single point]",–
CCN1CCCC1Cn1cnc2c([nH]c3cccc(Cl)c32)c1=O (configuration not stated),"inconclusive [inhibitor, partial curve, poor fit]",–
Cc1cc(C)nc(N/N=C/C=C/c2ccccc2)n1,"inconclusive [inhibitor, single point]",–
O=C(c1ccc2c(c1)CCN2S(=O)(=O)c1ccc(Cl)cc1)N1CCN(c2ccccc2)CC1,"inconclusive [inhibitor, single point]",–
CC1CCCC(NC(=O)Nc2cccs2)C1C (configuration not stated),"inconclusive [inhibitor, single point]",–

SMILES,Potency,"activity change, negative = inhibition"
Cc1ccn(-c2ccc(NC(=O)c3cccs3)cc2)n1,"inconclusive [inhibitor, single point]",–
Fc1ccc(Cn2cnc3ccccc32)cc1,"inconclusive [inhibitor, single point]",–
COC(=O)[C@@]1(Cc2ccc(F)cc2)[C@H]2c3cc(C(=O)N4CCCC4)n(Cc4ccc(OC(F)(F)F)cc4)c3C[C@H]2CN1C(=O)c1ccccc1,"inconclusive [inhibitor, partial curve, poor fit]",–
Cc1noc(C)c1COc1ccccc1C(=O)N1CCN(c2cccc(C(F)(F)F)c2)CC1,"inconclusive [inhibitor, single point]",–
CCCN(CCC)CCNC(=S)Nc1ccc2nc3n(c(=O)c2c1)CCCCC3,"inconclusive [inhibitor, partial curve, poor fit]",–
COc1cc(C(=O)NN2C(=O)NC3(CCC(C)CC3)C2=O)ccc1OC(F)F (configuration not stated),"inconclusive [inhibitor, partial curve, poor fit]",–
Cc1ccc(NC(=O)c2cncc(Br)c2)c(O)c1,"inconclusive [inhibitor, single point]",–
O=C(C1=C[C@@H](C2CCCCC2)C[C@@H](OCc2ccc(CO)cc2)O1)N1CCN(Cc2ccccc2)CC1,"inconclusive [inhibitor, single point]",–
CCn1c(SCc2ccc(F)cc2Cl)nc(=O)c2c(C(=O)OC)cc(C3CC3)nc21,"inconclusive [inhibitor, partial curve, poor fit]",–
CCOc1ccc(OCC)c(-c2c(=O)n(OCc3ccc(Cl)cc3)c3ccccc3[n+]2[O-])c1,"inconclusive [inhibitor, single point]",–
Fc1ccccc1NC(=S)NN(Cc1ccccc1)c1ccccc1,"inconclusive [inhibitor, single point]",–
Cc1csc2ncnc(N3CCN(C(=S)Nc4ccc(C(F)(F)F)cc4)CC3)c12,"inconclusive [inhibitor, partial curve, poor fit]",–
N#C/C(=N/Nc1ccc([N+](=O)[O-])cc1)C(=N)N1CCCCC1,"inconclusive [inhibitor, partial curve]",–
Cc1ccc(OCCCCN(C)Cc2ccccc2)c(Br)c1,"inconclusive [inhibitor, partial curve, poor fit]",–
c1ccc(-c2cc3c(-n4cccc4)ncnc3o2)cc1,–,inactive: 7.89%
COc1ccc(N2CCN(CC(=O)Nc3cc(C)cc(C)c3)CC2)cc1,"inconclusive [inhibitor, partial curve, poor fit]",–
c1ccc2cc(CCO[C@H]3CCCCO3)ncc2c1,"inconclusive [inhibitor, partial curve, poor fit]",–
COC(=O)c1c(C)oc2ccc(N(C(=O)c3ccncc3)S(=O)(=O)c3ccc4ccccc4c3)cc12,"inconclusive [inhibitor, single point]",–
CCOC(=O)C1CCN(S(=O)(=O)c2ccc(N3CCCCS3(=O)=O)cc2)CC1,–,inactive: -3.22%
Cc1ccc(C(=O)CC2C(=O)N(c3ccccc3)C(=S)N2c2ccccc2)cc1 (configuration not stated),"inconclusive [inhibitor, partial curve, poor fit]",–
